Source: PMC9911399, “Two distinct binding modes provide the RNA-binding protein RbFox with extraordinary sequence specificity”
Residue numbers refer to the chain shown, from its start. This is one part of the list.

B1: AGCGGUA (DNA:RNA)
RNA: GGGAGACCGGAAUUCAGAUUGUCCAGCGGUAUUAAAUCCCGUCGUAGCCACCA
DNA 1: CAATCTGAATTCCGGTCTCCC
DNA 2: TGGTGGCTACGACGGGATT
B2: CCCCGUG (DNA:RNA)
RNA: B1 RNA with A25C, G26C, G28C, A31G
DNA 1: CAATCTGAATTCCGGTCTCCC
DNA 2: TGGTGGCTACGACGGGATT
B3: UGAAUGU (DNA:RNA)
RNA: B1 RNA with A25U, C27A, G28A, G29U, U30G, A31U
DNA 1: CAATCTGAATTCCGGTCTCCC
DNA 2: TGGTGGCTACGACGGGATT
B4: CUCCCCU (DNA:RNA)
RNA: B1 RNA with A25C, G26U, G28C, G29C, U30C, A31U
DNA 1: CAATCTGAATTCCGGTCTCCC
DNA 2: TGGTGGCTACGACGGGATT
B5: CUGUCUU (DNA:RNA)
RNA: B1 RNA with A25C, G26U, C27G, G28U, G29C, A31U
DNA 1: CAATCTGAATTCCGGTCTCCC
DNA 2: TGGTGGCTACGACGGGATT
B6: GUAAAAC (DNA:RNA)
RNA: GGGAGACCGGAAUUCAGAUUGUCCGUAAAACUUAAAUCCCGUCGUAGCCACCA
DNA 1: CAATCTGAATTCCGGTCTCCC
DNA 2: TGGTGGCTACGACGGGATT
B7: CGCCGGA (DNA:RNA)
RNA: B1 RNA with A25C, G28C, U30G
DNA 1: CAATCTGAATTCCGGTCTCCC
DNA 2: TGGTGGCTACGACGGGATT
B8: CUACACG (DNA:RNA)
RNA: B6 RNA with G25C, A28C, A30C, C31G
DNA 1: CAATCTGAATTCCGGTCTCCC
DNA 2: TGGTGGCTACGACGGGATT
B9: UCUGGUU (DNA:RNA)
RNA: B1 RNA with A25U, G26C, C27U, A31U
DNA 1: CAATCTGAATTCCGGTCTCCC
DNA 2: TGGTGGCTACGACGGGATT
B10: CGGGGAG (DNA:RNA)
RNA: B1 RNA with A25C, C27G, U30A, A31G
DNA 1: CAATCTGAATTCCGGTCTCCC
DNA 2: TGGTGGCTACGACGGGATT
B11: GUUACGA (DNA:RNA)
RNA: B6 RNA with A27U, A29C, A30G, C31A
DNA 1: CAATCTGAATTCCGGTCTCCC
DNA 2: TGGTGGCTACGACGGGATT
B12: UGUUGUC (DNA:RNA)
RNA: B1 RNA with A25U, C27U, G28U, A31C
DNA 1: CAATCTGAATTCCGGTCTCCC
DNA 2: TGGTGGCTACGACGGGATT
B13: AACAGGU (DNA:RNA)
RNA: B1 RNA with G26A, G28A, U30G, A31U
DNA 1: CAATCTGAATTCCGGTCTCCC
DNA 2: TGGTGGCTACGACGGGATT
B14: GUACAGG (DNA:RNA)
RNA: B6 RNA with A28C, A30G, C31G
DNA 1: CAATCTGAATTCCGGTCTCCC
DNA 2: TGGTGGCTACGACGGGATT
B15: ACUUCGC (DNA:RNA)
RNA: B1 RNA with G26C, C27U, G28U, G29C, U30G, A31C
DNA 1: CAATCTGAATTCCGGTCTCCC
DNA 2: TGGTGGCTACGACGGGATT
B16: UCGGCGU (DNA:RNA)
RNA: B1 RNA with A25U, G26C, C27G, G29C, U30G, A31U
DNA 1: CAATCTGAATTCCGGTCTCCC
DNA 2: TGGTGGCTACGACGGGATT
B17: UUUGCAG (DNA:RNA)
RNA: B6 RNA with G25U, A27U, A28G, A29C, C31G
DNA 1: CAATCTGAATTCCGGTCTCCC
DNA 2: TGGTGGCTACGACGGGATT
B18: UACUAUC (DNA:RNA)
RNA: B1 RNA with A25U, G26A, G28U, G29A, A31C
DNA 1: CAATCTGAATTCCGGTCTCCC
DNA 2: TGGTGGCTACGACGGGATT
B19: UCCAGGU (DNA:RNA)
RNA: B1 RNA with A25U, G26C, G28A, U30G, A31U
DNA 1: CAATCTGAATTCCGGTCTCCC
DNA 2: TGGTGGCTACGACGGGATT
B20: CGAAGGC (DNA:RNA)
RNA: B6 RNA with G25C, U26G, A29G, A30G
DNA 1: CAATCTGAATTCCGGTCTCCC
DNA 2: TGGTGGCTACGACGGGATT

molecular target: T1, RBFOX1 RRM (Homo sapiens, UniProt Q9NWB1 109-208); assay: EMSA; HiTS-Eq, 1 nM pool, 10 min; buffer printed only for the single-RNA assays: 10 mM Tris pH 7.5, 150 mM NaCl, 3.4 mM EDTA, 0.001% NP-40, 30 C; conditions: tags: His6 N-terminal (pET28a); label: 5' 32P
T1 sequence: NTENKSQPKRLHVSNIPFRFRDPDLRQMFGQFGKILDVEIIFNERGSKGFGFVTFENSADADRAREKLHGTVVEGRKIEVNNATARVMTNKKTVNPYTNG
Method in brief: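 Purified wild-type or mutant RbFox RRM at increasing concentrations was equilibrated with 1 nM of 5′-radiolabelled RNA carrying 7 randomized nucleotides for 10 min in 50 µL. Unbound RNA was separated by 8% native PAGE and sequenced. Relative association constants came from read-count changes of each RNA species compared with the control reaction, normalised to the cognate motif.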

Binder	binding signal
B1	0.0112 KA relative to UGCAUGU
B2	0.00883 KA relative to UGCAUGU
B3	0.0386 KA relative to UGCAUGU
B4	0.00374 KA relative to UGCAUGU
B5	0.0133 KA relative to UGCAUGU
B6	0.00209 KA relative to UGCAUGU
B7	0.0133 KA relative to UGCAUGU
B8	0.0101 KA relative to UGCAUGU
B9	0.0209 KA relative to UGCAUGU
B10	0.0234 KA relative to UGCAUGU
B11	0.0124 KA relative to UGCAUGU
B12	0.0242 KA relative to UGCAUGU
B13	0.00491 KA relative to UGCAUGU
B14	0.011 KA relative to UGCAUGU
B15	0.00595 KA relative to UGCAUGU
B16	0.0179 KA relative to UGCAUGU
B17	0.022 KA relative to UGCAUGU
B18	0.0027 KA relative to UGCAUGU
B19	0.00893 KA relative to UGCAUGU
B20	0.0104 KA relative to UGCAUGU
